This is an account of results in PMC10726135.

The list shows a part of the results. At the low end of the ranking the order means little. Measured with an extract: partners may take part in the binding.

The test concerns the target T1, HNF4alpha8 (COS-7 nuclear extract) (UniProt P41235-5).
T1 sequence: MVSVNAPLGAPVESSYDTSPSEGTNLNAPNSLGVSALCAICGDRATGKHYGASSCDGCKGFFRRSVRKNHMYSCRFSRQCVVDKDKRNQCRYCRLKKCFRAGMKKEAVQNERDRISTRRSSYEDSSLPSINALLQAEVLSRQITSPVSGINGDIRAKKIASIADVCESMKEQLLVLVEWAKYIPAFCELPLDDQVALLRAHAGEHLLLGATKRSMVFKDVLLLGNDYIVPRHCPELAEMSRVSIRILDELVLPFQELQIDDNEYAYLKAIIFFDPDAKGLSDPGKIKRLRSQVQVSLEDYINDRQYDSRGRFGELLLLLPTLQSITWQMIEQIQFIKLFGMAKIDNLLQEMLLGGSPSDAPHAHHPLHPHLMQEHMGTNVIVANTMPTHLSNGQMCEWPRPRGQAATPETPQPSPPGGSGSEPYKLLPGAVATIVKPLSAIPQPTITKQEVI
Briefly: protein-binding microarray. The note with it: COS-7 nuclear extract on double-stranded Agilent 4x180k PBM; binding buffer, salt, pH and temperature not given; high values mean tight binding; double strand, one strand shown; sequences stand for … in …GCCTAGGGAGATTAGAGTATCGGTCGA
On to GTGCTCCTCCCCATCTCAGCCTCTCAGGTC, for which the binding signal (log2 normalized intensity) turned out to be 1.84.

Take AGGACCTTGGACTGAAGACTGGAACTGGGC: the binding signal (log2 normalized intensity) amounted to 1.67.

For the sequence GTAAATGCTGGAGATGAGGCTCAGACCTGA, the binding signal (log2 normalized intensity) is -1.25.

Turning to GCCCTGGAATGGGATCCAGGTGCAAAGTAC, the binding signal (log2 normalized intensity) came to 5.12.

As to GTAACCCCCCAGGAGCGAGTCAAGGGTCAA, the binding signal (log2 normalized intensity) was determined as 4.62.

On to TTCCTCCCTTGGAATGTGACCTTAGACCCC, for which the binding signal (log2 normalized intensity) was found to be 8.83.

CCAGAGTCTACAGGTCAGACCTGTTTCAAA: the binding signal (log2 normalized intensity) was 0.867.

For AACACGGACTTTGAAGCTCCAAGATAGGAA, the binding signal (log2 normalized intensity) stood at 1.6.

Take ACCCAACCTGTTACAAAACAGGTTCTTCCA: the binding signal (log2 normalized intensity) was determined as 0.712.

In the case of GTGAACTTTGCCCTCTCTTTCTGGAACCTA, the binding signal (log2 normalized intensity) worked out at 5.67.

In the case of CTGCTGGGGGTAAAGTGGATTGCTGGCCTT, the binding signal (log2 normalized intensity) amounted to 1.09.

As for TGTTTAAATAGTGATAATGGATGGCAAATA, the binding signal (log2 normalized intensity) was determined as 0.175.

Turning to CTCATCCCAGGGATAATGATAAAGAGATTG, the binding signal (log2 normalized intensity) is -1.25.

For TATCAACCAATGTATTCATGAGCATGCTTC, the binding signal (log2 normalized intensity) is 0.298.

Turning to TAGGATAAGGGTAGGGCCAATCTCTGGCAT, the binding signal (log2 normalized intensity) is -1.23.

Turning to AGTACCAGGTCAAAAGTTCAAACTTTATTT, the binding signal (log2 normalized intensity) amounted to 3.8.

As for AGCTCCCATAGAGTCCACCACTGACCTTAG, the binding signal (log2 normalized intensity) amounted to 3.83.

With AATGCCCAGGATTCCTTTTTCACTGCTCAC, the binding signal (log2 normalized intensity) is -0.85.

On to ACGGGCTATTTGGACTAGGCAAAAGACAGT, for which the binding signal (log2 normalized intensity) was -1.42.

Consider TCCCTATTGTTATCCAGGCCACGCTGCTAA, for which the binding signal (log2 normalized intensity) is -0.859.

Take AGAGGAGAAGCAAATGAAAAGAATATCTCA: the binding signal (log2 normalized intensity) was -1.33.

Turning to CATTTTTCCCCTGACAAGTATCTCGGTCAA, the binding signal (log2 normalized intensity) turned out to be 1.53.

Regarding ATCTTCAGTCTAGAATCTGCAGCCCCTTTT, the binding signal (log2 normalized intensity) stood at 3.24.

Regarding CATATCACCTAGGTGGAATCTTATACACAC, the binding signal (log2 normalized intensity) was found to be 0.446.

For ACTACCTCTTTAGGCTGGACTCTGACCCAT, the binding signal (log2 normalized intensity) came out at 7.54.

As for TGGACTACTTCATGTCCTGTAATTGGGGGA, the binding signal (log2 normalized intensity) is -1.2.

In the case of GTTCGAATCCCAGCGGTGCCTCAACCGAGC, the binding signal (log2 normalized intensity) is -1.27.

As to CTTCCCCTCCTTAGGAAAGAGACATCTGGG, the binding signal (log2 normalized intensity) is -0.714.

With TTGGTGCCTGCAGAGCCTCCCCATTGTAGA, the binding signal (log2 normalized intensity) is 2.06.

As to ACTATTTGGTGCACAAGAGGGCAGTATTTG, the binding signal (log2 normalized intensity) was 1.23.

As for TGTCCGGACACCAACCTTTGATCATCCGCA, the binding signal (log2 normalized intensity) was 4.74.

With TTCCTGCTGACCCTCTCCCCACCATTAACC, the binding signal (log2 normalized intensity) stood at 4.46.

In the case of CACATTTCTGAGCTGTGGAAACTCCACATG, the binding signal (log2 normalized intensity) is -1.29.

Regarding TTCCCACCAAACCTGAAAAACCTCTCTCCA, the binding signal (log2 normalized intensity) is -1.33.

GTGTTTTCCGGGGGCGGTTTTTCCATTGTA: the binding signal (log2 normalized intensity) was found to be 1.44.

With AAAGGTCACCAGTGAGCCAAGGTACCCTGG, the binding signal (log2 normalized intensity) was found to be 1.29.

Consider TTGAGCTGGATGACCTTTGTCCTGGCACAA, for which the binding signal (log2 normalized intensity) is 8.

In the case of TTGACCCTTAGGATGTGGGGTATCAGGTGG, the binding signal (log2 normalized intensity) came to 3.04.

Turning to GGCTTAAGATAAGGGACATCAACAAAGAAG, the binding signal (log2 normalized intensity) was -1.18.

With AAGTTACCTACGGGTCAAGGGTTCAGGGCT, the binding signal (log2 normalized intensity) is 2.77.

With TGTAGCCAGATAAGAGCTATCAATGACCCA, the binding signal (log2 normalized intensity) was 2.21.

For AATGCTCTGGCCTTTTTTTTGTGTGTGTGT, the binding signal (log2 normalized intensity) came out at 2.93.

In the case of AGCATGGCCCAGGGACTCAGGCACACAAAA, the binding signal (log2 normalized intensity) is -1.37.

Consider ACTTATTGTGTTATGTACTTAGTGTTTTAT, for which the binding signal (log2 normalized intensity) turned out to be 2.19.

As to AAGCAAGGCTCTTAGCAGAAGCCCTCCTGG, the binding signal (log2 normalized intensity) is -1.33.

As to ACAATTTACAGTGTTCAAAGGTAGCTTCCT, the binding signal (log2 normalized intensity) worked out at 2.23.

As to CTGACCCTCAGGTTGCCCTAGTGACTCTAG, the binding signal (log2 normalized intensity) stood at 2.05.

Consider CTCTCTCCAAGGCACAGAGAAGAATTTCGA, for which the binding signal (log2 normalized intensity) is -1.45.

As for CCAGCTCTGTTGCTTATCTTCTCTTTTACT, the binding signal (log2 normalized intensity) was 0.621.

For the sequence CCTGGGGAGCGGCCTGCACCTGTTTCTGGA, the binding signal (log2 normalized intensity) was -1.27.

With CCTCGGCTCTGCGCAGGCGCAGTCCTCTCT, the binding signal (log2 normalized intensity) was -1.29.

Consider TCGCCCGAGCGCTGCTTCTCGTCCCCGCCC, for which the binding signal (log2 normalized intensity) was found to be 4.01.

For GCTGGGGGACGCGACCTCCGGGAAAGCTAT, the binding signal (log2 normalized intensity) is -1.4.

Take CAGGCCTCCCTCCCTCCCCCATTAGAGGCA: the binding signal (log2 normalized intensity) was determined as 4.51.

Turning to CCAAGTTCAAAGGTTATCTGCTGGCAGAAT, the binding signal (log2 normalized intensity) stood at 4.89.

AACCCAAAGTCTTTCTCTTTCAAGATAACA: the binding signal (log2 normalized intensity) turned out to be 0.326.

In the case of AAGTCCACAAAGATAAGAAAGAATCAGCAC, the binding signal (log2 normalized intensity) is -1.11.

As to GCCTCGCCCGAGCTGTGCGGTAGGCATTGA, the binding signal (log2 normalized intensity) is -1.42.

As for TGGAGATCAGAGTCCAGCTGTGCCCCAGTC, the binding signal (log2 normalized intensity) was 3.23.

With GGATTTTAGCAGATAACTCCTGTGCTGGAA, the binding signal (log2 normalized intensity) is -0.543.

As for TCTTCACCAAATCATTTCACTTCCTTTGTT, the binding signal (log2 normalized intensity) is 1.13.

Consider CAATGCTGGAGGGACTGTGATGAAGGCAGA, for which the binding signal (log2 normalized intensity) was -1.35.

Consider GAGATGAGGCTCAGACCTGACCTTTGGATT, for which the binding signal (log2 normalized intensity) was determined as 8.85.

With GCGAACCATTTCCCATGGGACTGGCAAAGC, the binding signal (log2 normalized intensity) was -1.2.

GATCTGAGATGCTGGGTGGCATAGTTGATG: the binding signal (log2 normalized intensity) turned out to be 0.395.

Consider TAGTAGGGTCAAAGTCTGGATCCGTTAACA, for which the binding signal (log2 normalized intensity) came out at 4.83.

On to TGCTGGAGAAAGAGGGGAAGGATGAATTTA, for which the binding signal (log2 normalized intensity) is -1.11.

With TCAATAAATCACACGAAACAAGTAGCAGTT, the binding signal (log2 normalized intensity) was -1.24.

For GTTATCTGATCAAATTCCACACCCCCCACT, the binding signal (log2 normalized intensity) was 5.35.

Take CAGGGTCAATGTCCCCTTAGGAATAGTATC: the binding signal (log2 normalized intensity) was determined as 2.54.

With AATTGAGATGAGATGGTCAAAGGTTGATGG, the binding signal (log2 normalized intensity) was found to be 4.61.

For the sequence AGCAGGCACCCCGGGAGCGCCGAGCACGTC, the binding signal (log2 normalized intensity) is -1.23.

Take GGACAGCCTTTTTCAAGCAATGTTTGCCTC: the binding signal (log2 normalized intensity) was determined as 0.144.
